B1: chr6:89084018:89084151:+|CDS|ENSG00000146278|unk|FALSE|unique (ssRNA)
RNA: GGGAGUUCUACAGUCCGACGAUCACUGAAGUGAGCCAAAAGGAAAAUUAUGCUGGGGCAAAGUUUAGUGAUCCACCUUCUCCUAGUGUUCUUCCAAAGCCUCCUAGUCACUGGAUGGGAAGCACUGUUGAAAAUUCCAACCAACAACAGAGGAUUGAGCAUCA
B2: ENSG00000010278:stop:overlap|stop_codon|ENSG00000010278|stop_codon|NA|stop_codon (ssRNA)
RNA: GGGAGUUCUACAGUCCGACGAUCUUGGCAUGAUCUUCAGUAUGAUCUUGUGCUGUGCUAUCCGCAGGAACCGCGAGAUGGUCUAGAGUCAGCUUACAUCCCUGAGCAGGAAAGUUUACCCAUGAAGAUUGGUGGGAUUUUUUGCAACAGAGGAUUGAGCAUCA
B3: ENSG00000107863:be:win_6201|3pUTR|ENSG00000107863|bound_else_gene|NA|bound_elsewhere_windowed (ssRNA)
RNA: GGGAGUUCUACAGUCCGACGAUCACUAACAAAAGUGCCUCAUCAUAAAAAUACAGUUGGUUUUUAGGGUGCCAUAUUGUUAAAAUUAGAUAACUUACUUACAUUGAAUAAACGAAUGCGUUUUAUUGGUAACAGAUAUCAUUACAACAGAGGAUUGAGCAUCA
B4: chr17:49053040:49053141:+|3pUTR|ENSG00000159217|unk|FALSE|unique (ssRNA)
RNA: GGGAGUUCUACAGUCCGACGAUCCUCAGCUCCUGUGAGGGGUCUGGUUAGGAGAGAGCCAUUUUUAAGGACAGGGAGUUUUAUAGCCCUUUUCUACUUUCCUCCCCUCCUCCCAGUCCUUAUCAAUCUUUUUUCCUUUUUCCUCAACAGAGGAUUGAGCAUCA
B5: chr7:95359871:95360131:-|three_prime_utr|ENSG00000105852|control|control|control (ssRNA)
RNA: GGGAGUUCUACAGUCCGACGAUCCAAUGGCUCUGUGCUUCAGGGCACCUCUGUGGCUUCUGUGUACCAUGGGAAAAUUCUCAUAGGCACCGUAUUUCACAAAACUCUGUACUGUGAGCUCUAGACUCUAGAUAGUAAAAAAAACAACAGAGGAUUGAGCAUCA
B6: chr6:56640275:56640385:-|CDS|ENSG00000151914|unk|FALSE|bound_elsewhere (ssRNA)
RNA: GGGAGUUCUACAGUCCGACGAUCGACUUCCCGCCUGACUCCAUCUGUCACUCCAGCUUAUACACCUGGUUUCCCAUCAGGAUUAGUUCCAAAUUUCAGUUCAGGAGUAGAGCCAAAUUCAUUGCAAACUUUGAAGUUGAUGCACAACAGAGGAUUGAGCAUCA
B7: chr1:169588848:169589605:-|three_prime_utr|ENSG00000174175|control|control|control (ssRNA)
RNA: GGGAGUUCUACAGUCCGACGAUCAUAAUGCAUUUGCUGCAGGUUUCCAUAAACACCCAUGAAUCAAAGACAUGGAAUUACCUUAGAUUAGCUCUGGACCAGCCUGUUGGACCCGCUCUGGACCAACCCUGUUUCCUGAGUUUGCAACAGAGGAUUGAGCAUCA
B8: chr5:97028609:97028710:+|3pUTR|ENSG00000113441|msi1|FALSE|bound_elsewhere (ssRNA)
RNA: GGGAGUUCUACAGUCCGACGAUCUUGCAAAAGCCAAGGUAAAGCCAGGAUCGCUGCCAAGUUGUUUGCACUCUUUGGAGUUCUAGUUAGCUCAGGGCCUGACUGUAUUUUUCAUCCAUCUUUUCUGAAGUGUCUUUGGGCAGUCAACAGAGGAUUGAGCAUCA
B9: chr4:41958937:41959038:+|3pUTR|ENSG00000109133|msi1|total|mutant (ssRNA)
RNA: GGGAGUUCUACAGUCCGACGAUCUCUUGAACUCCUGGCCUCAAGUGAUCUGCCCGCCUCGACCUCCCAGAGUGCUGGGAUUACCGGUGUGAGCCACUAAGCCUGGCUGAGACAACCCGUUUCCCUUAACUCAUUGGAAUUCUCCAACAGAGGAUUGAGCAUCA
B10: chr14:101901747:101901860:+|CDS|ENSG00000078304|unk|total|mutant (ssRNA)
RNA: GGGAGUUCUACAGUCCGACGAUCCUGGCCAAAGACUCACAGUCCAAAAGAAGUAAUGUUCUUAAACGAAUCCGAAGAGAUUUCCGAUGUCAUUGAACCAUCAGAAUUUGUGAAGAUCAUGGAACCCCUCUUCCGGCAGUUGGCCAACAGAGGAUUGAGCAUCA
B11: chr2:27243795:27243896:+|3pUTR|ENSG00000084774|unk|FALSE|unique (ssRNA)
RNA: GGGAGUUCUACAGUCCGACGAUCACUUAAUAAACAGCCGAGCUGUCCCUUGAUGCUGAGUGUAGUAGAACAGAGCUUUCUUUUAGAAAAUUGAGCAGAUUCCCAAAUUAUAAGAGCAGCCUCACCAGGCAGGGCUCUGGCUAGCAACAGAGGAUUGAGCAUCA
B12: chr14:103519669:103519777:-|3pUTR|ENSG00000166165|unk|total|mutant (ssRNA)
RNA: GGGAGUUCUACAGUCCGACGAUCCUGAUGUUCGCCGUCUGGCGAGCCCUCCGCCUUGCUGCCGAGACUUCCGUCACCCUUGGCCGAGUUUAUUUUUUUGAUGGCUAAGAUACUGCUGAUGCUGAAAUAAACCCGGGUUUUGGCCAACAGAGGAUUGAGCAUCA
B13: chr19:3536616:3536717:+|3pUTR|ENSG00000105325|msi1|total|mutant (ssRNA)
RNA: GGGAGUUCUACAGUCCGACGAUCACCGCCGCAGGGCCAGGCGGACGGCGUGAGGUUUGUGUUGGGGCUGGUUCUGCCCAUGCCCGGGGGUGGGGGAGCUCCCAGGACAGACCAGCCUUGUUUCUCAUGUAAUGCAGUGACGCUCAACAGAGGAUUGAGCAUCA
B14: chr17:63423787:63423888:+|3pUTR|ENSG00000170921|msi1|total|mutant (ssRNA)
RNA: GGGAGUUCUACAGUCCGACGAUCCUAACUCAAGCCCCAGCCUCUUUCCACACUCCCUGAUACCUAAGGACUGCUUUCUCAGCCCGACCAGGGUGGGCAUCAGCGACGCCUUCUCAGCCCGACCAGGGCCGGCAUCAGCGUCCUCAACAGAGGAUUGAGCAUCA

The list shows a part of the results.

Here are results for 14 molecules from paper PMC12136788.

For the experiment, the target named is T1, UNK ZnF1-6 (called full-length) (human, UniProt Q9C0B0 30-357).
T1 sequence: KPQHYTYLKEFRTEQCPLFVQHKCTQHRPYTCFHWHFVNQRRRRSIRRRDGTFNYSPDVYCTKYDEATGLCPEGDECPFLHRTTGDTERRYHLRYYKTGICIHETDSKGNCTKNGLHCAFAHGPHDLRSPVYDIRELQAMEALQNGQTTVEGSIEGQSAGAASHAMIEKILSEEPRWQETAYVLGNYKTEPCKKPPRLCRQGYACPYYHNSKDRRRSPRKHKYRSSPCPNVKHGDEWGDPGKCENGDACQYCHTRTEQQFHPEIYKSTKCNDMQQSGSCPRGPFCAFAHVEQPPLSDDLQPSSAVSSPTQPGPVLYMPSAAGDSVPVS
In words: nsRBNS (natural sequence RNA bind-n-seq); RBNS binding buffer (assumed for nsRBNS): 25 mM Tris pH 7.5, 150 mM KCl, 3 mM MgCl2, 0.01% Triton X-100, 500 ug/ml BSA, 20 U/ml SUPERase-In, 4 C; UNK is unkempt and MSI1 is Musashi-1; names of the RNAs are library labels; protein concentration not given here; high values mean tight binding.
With B1, the binding signal was 0.494 enrichment R.
In the case of B2 it was 0.514 enrichment R.
In the case of B3, the binding signal came to 1.18 enrichment R.
The same measure for B4: 3.9 enrichment R; for B5: 2.18 enrichment R.
In the case of B6 it was 0.584 enrichment R.
In the case of B7 it was 1.37 enrichment R.
Consider B8, for which the binding signal worked out at 0.475 enrichment R.
In the case of B9 it was 0.642 enrichment R; in that of B10, 0.427 enrichment R; in that of B11, 0.984 enrichment R.
The same measure for B12: 0.776 enrichment R; for B13: 0.79 enrichment R; for B14: 0.802 enrichment R.
